# Reference: the supplement of paper PMC8728848
# The other results are listed elsewhere or left out.
# B1: PNA (Arachis hypogaea), P02872 (protein)
# chain: MKPFCVFLTFFLLLAASSKKVDSAETVSFNFNSFSEGNPAINFQGDVTVLSNGNIQLTNLNKVNSVGRVLYAMPVRIWSSATGNVASFLTSFSFEMKDIKDYDPADGIIFFIAPEDTQIPAGSIGGGTLGVSDTKGAGHFVGVEFDTYSNSEYNDPPTDHVGIDVNSVDSVKTVPWNSVSGAVVKVTVIYDSSTKTLSVAVTNDNGDITTIAQVVDLKAKLPERVKFGFSASGSLGGRQIHLIRSWSFTSTLITTTRRSIDNNEKKIMNMASA
# Columns and labels:
# Experiment in all cases: glycan array binding signal (z-score within array); higher = stronger binding
# Conditions in all cases: glycan notation: IUPAC condensed, linker removed
# [1] = molecular target: Fuc(a1-3)[Gal(b1-4)]GlcNAc(b1-3)Gal(b1-4)[Fuc(a1-3)]GlcNAc(b1-3)Gal(b1-4)[Fuc(a1-3)]GlcNAc
# Outline: (§1)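 Glycan array data were curated from 3228 arrays in the Consortium for Functional Glycomics database and kept only where the protein sequence was available. Glycan names were converted to IUPAC-condensed notation, and columns mapping to the same glycan were averaged. The binding signal is a within-array Z-score, averaged across arrays of the same protein sequence at different concentrations or buffers and across linkers. Negative Z-scores can be read as non-binding.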
# [2] = molecular target: Fuc(a1-3)[Gal(b1-4)]GlcNAc(b1-3)GalNAc
# Outline: as §1
# [3] = molecular target: Fuc(a1-3)[Gal(b1-4)]GlcNAc(b1-3)[Fuc(a1-2)]Gal(b1-4)Glc
# Outline: as §1
# [4] = molecular target: Fuc(a1-3)[Gal(b1-4)]GlcNAc(b1-3)[Fuc(a1-3)[Gal(b1-4)]GlcNAc(b1-6)]Gal(b1-4)Glc
# Outline: as §1
# [5] = molecular target: Fuc(a1-3)[Gal(b1-4)]GlcNAc(b1-4)Gal(b1-4)[Fuc(a1-3)]GlcNAc
# Outline: as §1
# [6] = molecular target: Fuc(a1-3)[Gal(b1-4)]GlcNAc(b1-4)Gal(b1-4)[Fuc(a1-3)]GlcNAc(b1-4)Gal(b1-4)[Fuc(a1-3)]GlcNAc
# Outline: as §1
# [7] = molecular target: Fuc(a1-3)[Gal(b1-4)]GlcNAc(b1-6)GalNAc
# Outline: as §1
# [8] = molecular target: Fuc(a1-3)[Gal(b1-4)]GlcNAc(b1-6)[Gal(b1-3)GlcNAc(b1-3)]Gal(b1-4)Glc
# Outline: as §1
# [9] = molecular target: Fuc(a1-3)[Gal(b1-4)]GlcNAc6S
# Outline: as §1
# [10] = molecular target: Fuc(a1-3)[Gal3S(b1-4)]Glc
# Outline: as §1
# [11] = molecular target: Fuc(a1-3)[Gal3S(b1-4)]GlcNAc
# Outline: as §1
# [12] = molecular target: Fuc(a1-3)[Gal3S(b1-4)]GlcNAc(b1-3)Gal
# Outline: as §1
# [13] = molecular target: Fuc(a1-3)[Gal3S(b1-4)]GlcNAc(b1-3)Gal(b1-4)Glc
# Outline: as §1
# [14] = molecular target: Fuc(a1-3)[Gal3S(b1-4)]GlcNAc6S
# Outline: as §1
# [15] = molecular target: Fuc(a1-3)[Gal3S(b1-4)]GlcNAc6S(b1-3)Gal(b1-4)Glc
# Outline: as §1
# [16] = molecular target: Fuc(a1-3)[Gal6S(b1-4)]GlcNAc(b1-3)Gal(b1-4)Glc
# Outline: as §1
# [17] = molecular target: Fuc(a1-3)[GalNAc(b1-4)]GlcNAc
# Outline: as §1
# [18] = molecular target: Fuc(a1-3)[GalNAc(b1-4)]GlcNAc6S
# Outline: as §1
# Fuc(a1-4)GlcNAc = molecular target: Fuc(a1-4)GlcNAc
# Outline: as §1
# Fuc(a1-6)GlcNAc = molecular target: Fuc(a1-6)GlcNAc
# Outline: as §1
# Fuc(b1-3)GlcNAc = molecular target: Fuc(b1-3)GlcNAc
# Outline: as §1
# Gal(a1-2)Gal = molecular target: Gal(a1-2)Gal
# Outline: as §1
# Gal(a1-3)Gal = molecular target: Gal(a1-3)Gal
# Outline: as §1
# Gal(a1-3)Gal(b1-3)GlcNAc = molecular target: Gal(a1-3)Gal(b1-3)GlcNAc
# Outline: as §1
# [19] = molecular target: Gal(a1-3)Gal(b1-3)GlcNAc(b1-2)Man
# Outline: as §1
# [20] = molecular target: Gal(a1-3)Gal(b1-3)GlcNAc(b1-2)Man(a1-3)[Gal(a1-3)Gal(b1-3)GlcNAc(b1-2)Man(a1-6)]Man(b1-4)GlcNAc(b1-4)GlcNAc
# Outline: as §1
# [21] = molecular target: Gal(a1-3)Gal(b1-3)GlcNAc(b1-3)GalNAc
# Outline: as §1
# [22] = molecular target: Gal(a1-3)Gal(b1-3)GlcNAc(b1-6)GalNAc
# Outline: as §1
# [23] = molecular target: Gal(a1-3)Gal(b1-3)[Fuc(a1-4)]GlcNAc(b1-2)Man(a1-3)[Gal(a1-3)Gal(b1-3)[Fuc(a1-4)]GlcNAc(b1-2)Man(a1-6)]Man(b1-4)GlcNAc(b1-4)GlcNAc
# Outline: as §1
# Gal(a1-3)Gal(b1-4)Glc = molecular target: Gal(a1-3)Gal(b1-4)Glc
# Outline: as §1
# Gal(a1-3)Gal(b1-4)GlcNAc = molecular target: Gal(a1-3)Gal(b1-4)GlcNAc
# Outline: as §1
# [24] = molecular target: Gal(a1-3)Gal(b1-4)GlcNAc(b1-2)Man
# Outline: as §1
# [25] = molecular target: Gal(a1-3)Gal(b1-4)GlcNAc(b1-2)Man(a1-3)[Gal(a1-3)Gal(b1-4)GlcNAc(b1-2)Man(a1-6)]Man(b1-4)GlcNAc(b1-4)GlcNAc
# Outline: as §1
# [26] = molecular target: Gal(a1-3)Gal(b1-4)GlcNAc(b1-3)GalNAc
# Outline: as §1
# [27] = molecular target: Gal(a1-3)Gal(b1-4)GlcNAc(b1-6)GalNAc
# Outline: as §1
# [28] = molecular target: Gal(a1-3)Gal(b1-4)[Fuc(a1-3)]GlcNAc
# Outline: as §1
# [29] = molecular target: Gal(a1-3)Gal(b1-4)[Fuc(a1-3)]GlcNAc(b1-2)Man(a1-3)[Gal(a1-3)Gal(b1-4)[Fuc(a1-3)]GlcNAc(b1-2)Man(a1-6)]Man(b1-4)GlcNAc(b1-4)GlcNAc
# Outline: as §1
# Gal(a1-3)GalNAc = molecular target: Gal(a1-3)GalNAc
# Outline: as §1
binder,measurement,setting,value
B1,glycan array binding signal (z-score),[1],-0.202
same,glycan array binding signal (z-score),[2],-0.139
same,glycan array binding signal (z-score),[3],-0.195
same,glycan array binding signal (z-score),[4],-0.195
same,glycan array binding signal (z-score),[5],-0.095
same,glycan array binding signal (z-score),[6],-0.121
same,glycan array binding signal (z-score),[7],0.024
same,glycan array binding signal (z-score),[8],-0.083
same,glycan array binding signal (z-score),[9],-0.158
same,glycan array binding signal (z-score),[10],-0.195
same,glycan array binding signal (z-score),[11],-0.16
same,glycan array binding signal (z-score),[12],-0.195
same,glycan array binding signal (z-score),[13],-0.195
same,glycan array binding signal (z-score),[14],-0.117
same,glycan array binding signal (z-score),[15],-0.195
same,glycan array binding signal (z-score),[16],-0.195
same,glycan array binding signal (z-score),[17],-0.127
same,glycan array binding signal (z-score),[18],-0.239
same,glycan array binding signal (z-score),Fuc(a1-4)GlcNAc,-0.191
same,glycan array binding signal (z-score),Fuc(a1-6)GlcNAc,-0.195
same,glycan array binding signal (z-score),Fuc(b1-3)GlcNAc,-0.175
same,glycan array binding signal (z-score),Gal(a1-2)Gal,-0.169
same,glycan array binding signal (z-score),Gal(a1-3)Gal,-0.253
same,glycan array binding signal (z-score),Gal(a1-3)Gal(b1-3)GlcNAc,-0.185
same,glycan array binding signal (z-score),[19],-0.354
same,glycan array binding signal (z-score),[20],-0.115
same,glycan array binding signal (z-score),[21],-0.229
same,glycan array binding signal (z-score),[22],-0.229
same,glycan array binding signal (z-score),[23],-0.197
same,glycan array binding signal (z-score),Gal(a1-3)Gal(b1-4)Glc,-0.147
same,glycan array binding signal (z-score),Gal(a1-3)Gal(b1-4)GlcNAc,-0.178
same,glycan array binding signal (z-score),[24],-0.115
same,glycan array binding signal (z-score),[25],-0.117
same,glycan array binding signal (z-score),[26],-0.181
same,glycan array binding signal (z-score),[27],-0.22
same,glycan array binding signal (z-score),[28],-0.091
same,glycan array binding signal (z-score),[29],-0.213
same,glycan array binding signal (z-score),Gal(a1-3)GalNAc,-0.112
